± gives the uncertainty stated by the source. A number of entries come with more than one value. They are shown here; other results are not. The source may hold further records. Values that stand side by side are repeats across runs, samples, wells, individuals or studies. What stands in brackets tells the records apart. Letters count within one entry.
CCCCOC(C)=O
viscosity (298.15 K, 101 kPa): 0.673 ± 0.056 mPa·s [study A] and 0.678 ± 0.041 mPa·s [study B] and 0.669 ± 0.007 mPa·s [study C] and 0.6723 ± 0.009 mPa·s [study D] and 0.675 ± 0.007 mPa·s [study E] and 0.686 ± 0.011 mPa·s [study F] and 0.7 ± 0.01 mPa·s [study G] | viscosity (298.15 K, 101.33 kPa): 0.679 ± 0.01 mPa·s [study A] and 0.673 ± 0.009 mPa·s [study B] and 0.675 ± 0.018 mPa·s [study C] and 0.662 ± 0.005 mPa·s [study D] | viscosity (303.15 K, 101 kPa): 0.6345 ± 0.0068 mPa·s [study A] and 0.63 ± 0.053 mPa·s [study B] and 0.635 ± 0.038 mPa·s [study C] and 0.6491 ± 0.0079 mPa·s [study D] and 0.6491 ± 0.0054 mPa·s [study E] and 0.625 ± 0.01 mPa·s [study F] and 0.641 ± 0.013 mPa·s [study G] | viscosity (303.15 K, 101.33 kPa): 0.634 ± 0.009 mPa·s [study A] and 0.63 ± 0.009 mPa·s [study B] and 0.631 ± 0.017 mPa·s [study C] and 0.623 ± 0.005 mPa·s [study D] and 0.648 ± 0.022 mPa·s [study E] | viscosity (308.15 K, 101 kPa): 0.596 ± 0.0066 mPa·s [study A] and 0.592 ± 0.05 mPa·s [study B] and 0.589 ± 0.009 mPa·s [study C] and 0.595 ± 0.013 mPa·s [study D] | viscosity (313.15 K, 101 kPa): 0.5609 ± 0.0063 mPa·s [study A] and 0.556 ± 0.034 mPa·s [study B] and 0.555 ± 0.006 mPa·s [study C] and 0.556 ± 0.006 mPa·s [study D] and 0.567 ± 0.007 mPa·s [study E] and 0.545 ± 0.009 mPa·s [study F] and 0.558 ± 0.012 mPa·s [study G]

From the CheMixHub viscosity set
